Reference: patent US11767359B2, “C3-binding agents and methods of use thereof” (NGM Biopharmaceuticals, Inc., priority 2018, dated 2023)

How the values were obtained:
C3 [1] = target: C3 (Homo sapiens, UniProt P01024); test: Binding affinity by Biacore, human C3; details: from Table 15
Description: The binding affinities of exemplary anti-C3 antibodies to human C3 and cyno C3 were measured using a Biacore system (GE Healthcare LifeSciences). Briefly, anti-Fc antibody (Sigma-Aldrich) was immobilized on all four flow cells of a CM5 chip using amine coupling reagents (GE Healthcare LifeSciences). Antibodies were captured on flow cells 2, 3, and 4 using flow cell 1 as a reference. Concentrations ranging from 0.62-40 nM of human C3 or cyno C3 were injected at a flow rate of 50 μL/min at 37° C. Kinetic data were collected over time and fit using the simultaneous global fit equation to yield affinity constants (KD values) for each antibody.
More recently, a number of compstatin analogs and derivatives have been generated and studied. […] A Biacore system was used to assess the binding affinities of the different molecules to human C3. […] Evaluation of COMP or COMP-PEG binding to human C3 was carried out as follows. Human C3 was immobilized on flow cell 2 of a CM5 chip using amine-coupling reagents (GE Healthcare LifeSciences) and flow cell 1 (immobilized with a similar amount of human IgG) was used as a reference. […] Similar experiments were set up with COMP-PEG (concentration range of 25-400 nM) for evaluation at 37° C. COMP-PEG binding to human C3 was also evaluated at 25° C. with modifications. […]

[2] = Viscosity at high formulation concentration (RheoSense); format: physicochemical
Description: The first buffer formulation was 10 mM sodium phosphate, 40 mM sodium chloride, 0.03% polysorbate 20, and 5% sucrose at pH 6.2. […] The second buffer formulation was 10 mM histidine HCl, 10% α,α trehalose dihydrate, and 0.01% polysorbate 20 at pH 5.5.

[3] = Elevated pH stress test, deamidation at N55 of heavy chain CDR2; format: physicochemical
[4] = Pharmacokinetics after intravitreal injection in rabbits; format: in vivo, New Zealand White rabbits; details: rabbit
Description: Samples were taken at 1 and 8 hours and on days 2, 4, 8, 15 and 22 (4 eyes/time point).

C3 [5] = test: LPS-induced complement activation model in the eye; format: in vivo, cynomolgus monkeys; details: 5 mg/eye IVT on Day 1, LPS 30 ng/eye IVT on Day 3, samples Days 5, 8, 13, 18
Description: In normal cynomolgus monkeys, C3 activation is minimal and thus the inhibitory effects of an anti-C3 antibody on C3 activation cannot be reliably evaluated in this setting. It is known that LPS can activate the complement system and a pilot study confirmed that complement C3 was activated by intravitreal injection (IVT) of LPS.
Twelve normal female cynomolgus monkeys (ages ranging from 8 to 17 years old) were assigned to 2 groups with 6 animals per group. A baseline sampling of aqueous humor was conducted on Day −3. […] On Day 3, animals were injected intravitreously with LPS at 30 ng/eye at a volume of 50 μl/eye. On Days 5, 8, 13, and 18 aqueous humor samples were taken. C3a concentrations in the aqueous humor were determined using a Complement C3a Human ELISA Kit (Invitrogen) following the manufacturer's instructions.

[6] = 1.0 mg single intravitreal dose, vitreous humor
[7] = 7.5 mg single intravitreal dose, vitreous humor

Chain of UniProt P01024 (P01024 23-1663): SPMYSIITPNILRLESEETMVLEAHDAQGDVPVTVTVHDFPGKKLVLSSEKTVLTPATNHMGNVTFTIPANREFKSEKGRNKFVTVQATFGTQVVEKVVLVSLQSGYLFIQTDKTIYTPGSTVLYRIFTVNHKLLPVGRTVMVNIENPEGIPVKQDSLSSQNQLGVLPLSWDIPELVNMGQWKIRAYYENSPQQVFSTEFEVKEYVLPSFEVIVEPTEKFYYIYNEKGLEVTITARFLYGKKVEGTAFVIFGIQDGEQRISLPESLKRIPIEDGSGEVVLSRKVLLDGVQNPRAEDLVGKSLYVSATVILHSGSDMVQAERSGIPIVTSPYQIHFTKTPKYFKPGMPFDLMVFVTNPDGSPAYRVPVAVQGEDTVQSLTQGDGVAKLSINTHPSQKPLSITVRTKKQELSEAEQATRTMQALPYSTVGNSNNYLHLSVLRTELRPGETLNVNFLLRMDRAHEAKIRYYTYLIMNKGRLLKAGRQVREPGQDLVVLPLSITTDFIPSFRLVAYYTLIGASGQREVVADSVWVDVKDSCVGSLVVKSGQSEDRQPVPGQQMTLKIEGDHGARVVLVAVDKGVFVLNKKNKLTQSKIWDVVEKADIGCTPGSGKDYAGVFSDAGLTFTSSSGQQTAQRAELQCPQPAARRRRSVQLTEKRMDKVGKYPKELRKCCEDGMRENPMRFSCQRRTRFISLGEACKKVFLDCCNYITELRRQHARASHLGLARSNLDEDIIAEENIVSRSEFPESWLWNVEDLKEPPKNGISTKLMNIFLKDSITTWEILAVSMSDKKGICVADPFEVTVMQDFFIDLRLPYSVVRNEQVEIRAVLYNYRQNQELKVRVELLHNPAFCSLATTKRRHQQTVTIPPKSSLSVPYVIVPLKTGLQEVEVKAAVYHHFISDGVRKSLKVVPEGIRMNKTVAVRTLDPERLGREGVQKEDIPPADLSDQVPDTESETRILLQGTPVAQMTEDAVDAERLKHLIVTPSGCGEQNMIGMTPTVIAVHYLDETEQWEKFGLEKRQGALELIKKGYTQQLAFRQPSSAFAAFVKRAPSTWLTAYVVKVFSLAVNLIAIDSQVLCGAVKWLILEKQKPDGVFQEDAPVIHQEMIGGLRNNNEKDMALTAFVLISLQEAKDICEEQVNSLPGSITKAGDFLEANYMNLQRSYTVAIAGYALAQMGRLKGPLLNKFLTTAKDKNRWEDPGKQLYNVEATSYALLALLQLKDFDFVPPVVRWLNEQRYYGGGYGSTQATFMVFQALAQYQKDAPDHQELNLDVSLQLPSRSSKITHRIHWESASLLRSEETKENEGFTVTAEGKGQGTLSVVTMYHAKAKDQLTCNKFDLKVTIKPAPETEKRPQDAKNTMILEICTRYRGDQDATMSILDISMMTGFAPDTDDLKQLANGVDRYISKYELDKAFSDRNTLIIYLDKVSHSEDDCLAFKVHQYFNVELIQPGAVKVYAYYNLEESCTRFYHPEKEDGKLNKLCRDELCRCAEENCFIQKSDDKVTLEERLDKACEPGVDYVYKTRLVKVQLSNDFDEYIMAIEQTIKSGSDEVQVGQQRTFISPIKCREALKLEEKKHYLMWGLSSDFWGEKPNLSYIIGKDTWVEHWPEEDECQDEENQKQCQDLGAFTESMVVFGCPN

affinity to human C3, times greater than a compstatin derivative or the pegylated version (C3 [1]): 50-80 times
B1: Hz38G10: humanized 38G10; VH SEQ ID NO:20, VL SEQ ID NO:25; heavy chain SEQ ID NO:27, light chain SEQ ID NO:31 (antibody)
heavy: QVQLVQSGAEVKKPGASVKVSCKASGYTFTDFYMDWVRQAPGQRLEWMGYIYPHNGGTTYNQQFTGRVTITVDKSASTAYMELSSLRSEDTAVYYCARRGGFDFDYWGQGTLVTVSSASTKGPSVFPLAPSSKSTSGGTAALGCLVKDYFPEPVTVSWNSGALTSGVHTFPAVLQSSGLYSLSSVVTVPSSSLGTQTYICNVNHKPSNTKVDKKV[here human IgG1 Fc with E233A L235A (EU numbers) without letters]
light: DIQMTQSPSSLSASVGDRVTITCKASENVDTYVSWYQQKPGKAPKLLIYGASNRYTGVPSRFSGSGSGTDFTFTISSLQPEDIATYHCGQSHSYPLTFGQGTKLEIKRTVAAPSVFIFPPSDEQLKSGTASVVCLLNNFYPREAKVQWKVDNALQSGNSQESVTEQDSKDSTYSLSSTLTLSKADYEKHKVYACEVTHQGLSSPVTKSFNRGEC
viscosity ([2]; 152 mg/mL in 10 mM histidine HCl, 10% α,α trehalose dihydrate, 0.01% polysorbate 20, pH 5.5): 17.6 mPa-s
viscosity ([2]; 164 mg/mL in 10 mM sodium phosphate, 40 mM sodium chloride, 0.03% polysorbate 20, 5% sucrose, pH 6.2): 15.2 mPa-s
increase of deamidation at N55 from Day 0 to Day 7 ([3]; pH 8.5): 18.5%
deamidation at the asparagine N55, Day 0 ([3]; pH 8.5, Day 0): 29.75%
deamidation at the asparagine N55, Day 7 ([3]; pH 8.5, Day 7): 48.23%
AUC [4, 6]: 3140 µg·days/mL
Cmax [4, 6]: 541 µg/mL
AUC [4, 7]: 33049 µg·days/mL
Cmax [4, 7]: 5680 µg/mL
T1/2 [4, 7]: 127 h
distribution to the retina, AUC as % of the vitreous humor ([4]; intravitreal): approximately 20%
distribution to the retina, Cmax as % of the vitreous humor ([4]; intravitreal): approximately 20%
half-life in the vitreous humor ([4]; intravitreal, 1 mg or 7.5 mg): 96 to 120 h
C3a in the aqueous humor as compared to vehicle (C3 [5]): Significantly lower levels of C3a
